In the supplement of paper PMC12217912:
The other results are listed elsewhere or left out. The full chains were built here from the parent and the listed change. Inactive controls read about 0.05.

B1: TEV protease; numbered along this chain (parent)
chain: MGESLFKGPRDYNPISSSICHLTNESDGHTTSLYGIGFGPFIITNKHLFRRNNGTLVVQSLHGVFKVKDTTTLQQHLVDGRDMIIIRMPKDFPPFPQKLKFREPQREERICLVTTNFQTKSMSSMVSDTSCTFPSGDGIFWKHWIQTKDGQCGSPLVSTRDGFIVGIHSASNFTNTNNYFTSVPKNFMELLTNQEAQQWVSGWRLNADSVLWGGHKVFMVKPEEPFQPVKEATQL

Variants of: B1
Test: raw area under fraction-flipped curve 0-4 h after induction (AUC4h, not background-subtracted), DNA-recorder readout of cleavage of the substrate (dimensionless); higher = more cleavage of the substrate by the protease variant
Conditions: temperature: 34 °C; time window: 0-4 h after rhamnose induction
Protocol: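 In vivo DNA recorder in E. coli TOP10(DE3) ΔrhaA at 34 °C. Each TEVp single-site mutant (parent TEVp 0) is paired with a single-site variant of the 7-mer TEVs (canonical ENLYFQ|S). The substrate sits between flexible linkers in a Bxb1-sfGFP-TEVs-SsrA fusion, so cleavage stabilises Bxb1 and speeds flipping of a recombination array, read by NGS. The value is the raw area under the fraction-flipped curve over 0-4 h after rhamnose induction (AUC4h), with ≥20 reads per time point. It is not background-subtracted; inactive controls average about 0.047.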
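Also: Bxb1 expression induced with 0.2% (w/v) L-rhamnose at OD600 near 0.5, cultures sampled hourly, flipped fraction per protease–substrate barcode pair counted by paired-end Illumina sequencing.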

| Variant | area with substrate EALYFQS | area with substrate EGLYFQS | area with substrate EHLYFQS | area with substrate EILYFQS | area with substrate EKLYFQS | area with substrate EMLYFQS | area with substrate EPLYFQS | area with substrate EQLYFQS | area with substrate ERLYFQS | area with substrate ESLYFQS | area with substrate EVLYFQS | area with substrate EELYFQS | area with substrate ELLYFQS | area with substrate ETLYFQS | area with substrate EWLYFQS | area with substrate ECLYFQS | area with substrate EFLYFQS | area with substrate EYLYFQS | area with substrate EDLYFQS |
| --- | --- | --- | --- | --- | --- | --- | --- | --- | --- | --- | --- | --- | --- | --- | --- | --- | --- | --- | --- |
| MGCSLFKGPRDYNPISSSICHLTNESDGHTTSLYGIGFGPFIITNKHLFRRNNGTLVVQSLHGVFKVKDTTTLQQHLVDGRDMIIIRMPKDFPPFPQKLKFREPQREERICLVTTNFQTKSMSSMVSDTSCTFPSGDGIFWKHWIQTKDGQCGSPLVSTRDGFIVGIHSASNFTNTNNYFTSVPKNFMELLTNQEAQQWVSGWRLNADSVLWGGHKVFMVKPEEPFQPVKEATQL [E3C] | 0.14 | 0.108 | 0.109 | 0.108 | 0.121 | 0.128 | 0.166 | 0.131 | 0.128 | 0.0988 | 0.162 | – | – | – | – | – | – | – | – |
| MGFSLFKGPRDYNPISSSICHLTNESDGHTTSLYGIGFGPFIITNKHLFRRNNGTLVVQSLHGVFKVKDTTTLQQHLVDGRDMIIIRMPKDFPPFPQKLKFREPQREERICLVTTNFQTKSMSSMVSDTSCTFPSGDGIFWKHWIQTKDGQCGSPLVSTRDGFIVGIHSASNFTNTNNYFTSVPKNFMELLTNQEAQQWVSGWRLNADSVLWGGHKVFMVKPEEPFQPVKEATQL [E3F] | 0.127 | 0.108 | 0.123 | 0.123 | – | – | 0.169 | 0.206 | 0.126 | 0.152 | 0.113 | 0.175 | 0.0968 | 0.148 | 0.101 | – | – | – | – |
| MGRSLFKGPRDYNPISSSICHLTNESDGHTTSLYGIGFGPFIITNKHLFRRNNGTLVVQSLHGVFKVKDTTTLQQHLVDGRDMIIIRMPKDFPPFPQKLKFREPQREERICLVTTNFQTKSMSSMVSDTSCTFPSGDGIFWKHWIQTKDGQCGSPLVSTRDGFIVGIHSASNFTNTNNYFTSVPKNFMELLTNQEAQQWVSGWRLNADSVLWGGHKVFMVKPEEPFQPVKEATQL [E3R] | 0.111 | – | 0.0822 | 0.0941 | 0.0837 | – | – | 0.111 | 0.0888 | 0.0692 | – | – | 0.0712 | – | 0.0042 | 0.0903 | 0.0839 | 0.0703 | – |
| MGEILFKGPRDYNPISSSICHLTNESDGHTTSLYGIGFGPFIITNKHLFRRNNGTLVVQSLHGVFKVKDTTTLQQHLVDGRDMIIIRMPKDFPPFPQKLKFREPQREERICLVTTNFQTKSMSSMVSDTSCTFPSGDGIFWKHWIQTKDGQCGSPLVSTRDGFIVGIHSASNFTNTNNYFTSVPKNFMELLTNQEAQQWVSGWRLNADSVLWGGHKVFMVKPEEPFQPVKEATQL [S4I] | 0.133 | 0.123 | 0.0927 | 0.0995 | 0.102 | – | 0.161 | 0.173 | 0.122 | 0.133 | 0.0909 | – | 0.19 | – | 0.13 | 0.128 | 0.0881 | 0.142 | – |
| MGEYLFKGPRDYNPISSSICHLTNESDGHTTSLYGIGFGPFIITNKHLFRRNNGTLVVQSLHGVFKVKDTTTLQQHLVDGRDMIIIRMPKDFPPFPQKLKFREPQREERICLVTTNFQTKSMSSMVSDTSCTFPSGDGIFWKHWIQTKDGQCGSPLVSTRDGFIVGIHSASNFTNTNNYFTSVPKNFMELLTNQEAQQWVSGWRLNADSVLWGGHKVFMVKPEEPFQPVKEATQL [S4Y] | 0.144 | – | 0.168 | 0.142 | 0.128 | 0.17 | 0.19 | 0.153 | – | 0.155 | – | – | 0.114 | – | 0.132 | 0.148 | 0.144 | – | – |
| MGESPFKGPRDYNPISSSICHLTNESDGHTTSLYGIGFGPFIITNKHLFRRNNGTLVVQSLHGVFKVKDTTTLQQHLVDGRDMIIIRMPKDFPPFPQKLKFREPQREERICLVTTNFQTKSMSSMVSDTSCTFPSGDGIFWKHWIQTKDGQCGSPLVSTRDGFIVGIHSASNFTNTNNYFTSVPKNFMELLTNQEAQQWVSGWRLNADSVLWGGHKVFMVKPEEPFQPVKEATQL [L5P] | 0.0764 | – | – | – | – | – | – | 0.0681 | 0.0595 | 0.0722 | – | 0.0484 | 0.0661 | – | 0.104 | – | – | – | – |
| MGESLFKGCRDYNPISSSICHLTNESDGHTTSLYGIGFGPFIITNKHLFRRNNGTLVVQSLHGVFKVKDTTTLQQHLVDGRDMIIIRMPKDFPPFPQKLKFREPQREERICLVTTNFQTKSMSSMVSDTSCTFPSGDGIFWKHWIQTKDGQCGSPLVSTRDGFIVGIHSASNFTNTNNYFTSVPKNFMELLTNQEAQQWVSGWRLNADSVLWGGHKVFMVKPEEPFQPVKEATQL [P9C] | 0.0876 | 0.0997 | – | 0.0784 | – | 0.121 | 0.105 | 0.122 | – | 0.101 | – | 0.128 | – | – | 0.12 | – | 0.0911 | – | 0.121 |
| MGESLFKGRRDYNPISSSICHLTNESDGHTTSLYGIGFGPFIITNKHLFRRNNGTLVVQSLHGVFKVKDTTTLQQHLVDGRDMIIIRMPKDFPPFPQKLKFREPQREERICLVTTNFQTKSMSSMVSDTSCTFPSGDGIFWKHWIQTKDGQCGSPLVSTRDGFIVGIHSASNFTNTNNYFTSVPKNFMELLTNQEAQQWVSGWRLNADSVLWGGHKVFMVKPEEPFQPVKEATQL [P9R] | 0.15 | 0.102 | – | – | – | 0.175 | – | 0.125 | 0.156 | 0.165 | 0.116 | – | – | – | – | 0.135 | – | 0.147 | 0.168 |
| MGESLFKGPDDYNPISSSICHLTNESDGHTTSLYGIGFGPFIITNKHLFRRNNGTLVVQSLHGVFKVKDTTTLQQHLVDGRDMIIIRMPKDFPPFPQKLKFREPQREERICLVTTNFQTKSMSSMVSDTSCTFPSGDGIFWKHWIQTKDGQCGSPLVSTRDGFIVGIHSASNFTNTNNYFTSVPKNFMELLTNQEAQQWVSGWRLNADSVLWGGHKVFMVKPEEPFQPVKEATQL [R10D] | 0.116 | 0.1 | – | 0.0884 | 0.0995 | 0.0939 | 0.103 | 0.145 | 0.0898 | 0.101 | 0.0829 | 0.112 | 0.122 | 0.0562 | 0.101 | 0.112 | 0.094 | – | – |
